Data from publication PMC4336329 (PLoS ONE, 2015).
The campaign covered roughly 310,000 compounds. About 2,200 (0.71%) showed an effect of 50% or more. Effects have a minus sign here. This is one part of the list.

Target: human ether-à-go-go-related gene (hERG) potassium channel (human, UniProt Q12809)
Assay: primary screen, population patch clamp on CHO cells stably expressing hERG

Sequence of human ether-à-go-go-related gene (hERG) potassium channel (Q12809 whole entry, looked up): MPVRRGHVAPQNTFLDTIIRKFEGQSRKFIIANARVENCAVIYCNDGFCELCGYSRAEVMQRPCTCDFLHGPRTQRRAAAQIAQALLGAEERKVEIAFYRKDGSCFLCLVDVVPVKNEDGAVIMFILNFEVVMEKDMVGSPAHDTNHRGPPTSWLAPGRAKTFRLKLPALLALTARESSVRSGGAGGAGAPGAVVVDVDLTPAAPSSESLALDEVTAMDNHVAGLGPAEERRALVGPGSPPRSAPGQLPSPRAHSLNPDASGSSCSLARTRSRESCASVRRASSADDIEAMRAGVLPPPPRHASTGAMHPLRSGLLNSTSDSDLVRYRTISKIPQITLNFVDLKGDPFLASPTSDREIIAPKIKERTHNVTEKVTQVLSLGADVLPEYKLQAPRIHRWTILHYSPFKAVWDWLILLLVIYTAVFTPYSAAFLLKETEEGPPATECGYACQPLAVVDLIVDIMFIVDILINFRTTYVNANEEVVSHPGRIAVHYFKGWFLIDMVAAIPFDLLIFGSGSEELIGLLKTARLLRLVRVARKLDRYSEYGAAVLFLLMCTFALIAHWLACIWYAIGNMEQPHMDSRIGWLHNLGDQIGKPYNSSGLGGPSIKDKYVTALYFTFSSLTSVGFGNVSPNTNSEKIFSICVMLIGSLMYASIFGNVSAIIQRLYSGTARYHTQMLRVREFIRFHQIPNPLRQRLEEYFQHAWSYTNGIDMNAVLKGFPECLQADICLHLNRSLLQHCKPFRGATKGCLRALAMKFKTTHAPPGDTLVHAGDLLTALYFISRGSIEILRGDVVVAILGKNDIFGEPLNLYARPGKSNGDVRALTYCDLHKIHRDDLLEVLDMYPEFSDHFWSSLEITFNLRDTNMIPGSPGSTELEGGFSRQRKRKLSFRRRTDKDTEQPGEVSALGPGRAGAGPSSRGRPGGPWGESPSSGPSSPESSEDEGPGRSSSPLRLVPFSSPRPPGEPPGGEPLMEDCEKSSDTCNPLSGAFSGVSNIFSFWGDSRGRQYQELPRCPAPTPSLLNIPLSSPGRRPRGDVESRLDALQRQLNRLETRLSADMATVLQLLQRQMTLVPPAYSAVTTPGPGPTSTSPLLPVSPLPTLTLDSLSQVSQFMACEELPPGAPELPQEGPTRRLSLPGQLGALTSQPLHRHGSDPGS

In order of falling “hERG current change (%, negative = inhibition) at 1uM” value:
1. CCOC(=O)c1sc(NC(=O)CSc2nc3cccnc3n2C)nc1C  17%
2. C=CCc1ccccc1OCC(O)CNC (centres unmarked)  16.6%
3. CC(=O)c1ccc(OCC(=O)NC2CCS(=O)(=O)C2)cc1 (centres unmarked)  16%
4. CCOc1ccc(S(=O)(=O)N(C)CCO)cc1-c1nc2c(C(C)(C)C)nn(C)c2c(=O)[nH]1  15.3%
5. S=C(NCCCc1ccccc1)Nc1ccccc1  14.8%
6. CSc1ccccc1NC(=O)c1cccnc1  14.7%
7. COc1ccc(-c2cccc(NC(=O)c3cccs3)c2)nn1  14.4%
8. Cc1ccc(-c2cc(C(=O)O)c3sc(N4CCCCC4)nc3n2)cc1  14.2%
9. C=CCNC(=O)c1onc(CSc2ccncc2)c1C(=O)NCC=C  13.9%
10. C/C(=N\N(c1ccccc1)c1ccccc1)c1ccc(O)cc1  13.6%
11. CCOc1ccc(/C=C2/C(=O)NC(=O)N(CCc3ccc(F)cc3)C2=O)cc1  13.5%
12. Cl.c1ccc(-c2ccc(CNC3CC3)cc2)cc1  13.2%
13. Cc1cc2nc(-c3ccccc3)cc(=O)n2[nH]1  13.2%
14. Cc1coc2c(C)c3oc(=O)c(CC(=O)N[C@@H](CC(C)C)C(=O)O)c(C)c3cc12  13%
15. Cc1cc2oc(=O)cc(CN3CCC(C)CC3)c2cc1C  12.8%
16. Cc1ccc(S(=O)(=O)N2CCCC2C(=O)NC2CCCCC2)cc1 (centres unmarked)  12.7%
17. O=C1CCC(/C=C/c2ccccc2)=NN1  12.7%
18. COc1ccc(C(=O)NCCSCc2cccc(Cl)c2)cc1OC  12.7%
19. O=C(Nc1nncs1)c1cc(S(=O)(=O)N2CCOCC2)ccc1Cl  12.6%
20. NC(=O)c1ccc(NS(=O)(=O)c2ccc3ccccc3c2)cc1  12.6%
21. CCOC(=O)c1sc(C)nc1C1CCN(C(=O)OCC)CC1  12.4%
22. CC1=C(C(=O)OCc2ccccc2)C(c2ccccc2OS(=O)(=O)c2ccc(C)cc2)NC(=O)N1CCCC(=O)O (centres unmarked)  12.1%
23. CCc1c(C)nc(N)nc1N1N=C1SC(C(C)=O)C(C)=O  12%
24. COc1ccccc1N(CC(=O)NC1CCCC1)C(=O)CCC(=O)Nc1ccccn1  12%
25. CCN(C(=O)CSc1n[nH]c(-c2cccs2)n1)C1CCS(=O)(=O)C1 (centres unmarked)  11.8%
26. Cc1ccc(C(=O)NNC(=O)C2CCN(c3nccc(C)n3)CC2)cc1  11.3%
27. O=C(NCCCN1CCCC1=O)Nc1ccc([N+](=O)[O-])cc1  11%
28. N#Cc1c(-c2ccccc2F)cc(-c2cccnc2)nc1N  10.9%
29. COc1c(Cl)ccc(Cl)c1C(=O)OCC(=O)O  10.9%
30. CCOC(=O)c1cc(CC)sc1N1C(=O)CC(Sc2ncccc2C(=O)O)C1=O (centres unmarked)  10.7%
31. CCCCC1=CC2=CC(=O)C(C)(OC(=O)c3cccs3)C(=O)C2=CO1 (centres unmarked)  10.4%
32. N#CC1=CN(Cc2ccccc2)C=C(/C=N/Nc2ccccc2)C1  10.3%
33. CC1CCN(C(=O)Cn2c3ccccc3c3nc4n(c(=O)c32)CCCS4)CC1  10.3%
34. CCCc1cc(=O)[nH]c(SCC(=O)N2CCN(c3ccccc3)CC2)n1  10.1%
35. CCOC(=O)c1c(NC(=O)CN2C(=O)NC3(CCCCC3C)C2=O)sc(C)c1CC (centres unmarked)  10%
36. CCN(CC)c1ccc(NC(=O)CSc2nnc(N)s2)cc1C  9.25%
37. COCCNC(=O)CN(Cc1ccc(OC)cc1)C(=O)CCC(=O)Nc1nccs1  9.05%
38. COc1ccc(CN2C(=O)NC(=O)/C(=C/c3ccoc3)C2=O)cc1  9.03%
39. CCOC(=O)C1C(=O)CC(C)(O)C(C(=O)OCC)C1c1ccc(SC)cc1 (centres unmarked)  8.99%
40. COC(=O)c1ccc(CN2CCCCC2)cc1  7.99%
41. COc1cc(OC)cc(C(=O)Nc2ccc(S(=O)(=O)Nc3ncccn3)cc2)c1  7.99%
42. CSc1ncccc1C(=O)NCC(c1cccs1)N1CCOCC1 (centres unmarked)  7.38%
43. O=C1CC(N2CCc3ccccc32)C(=O)N1c1ccc(F)cc1 (centres unmarked)  7.36%
44. CN(C)c1ccc(S(=O)(=O)NCC(=O)OCC(=O)NC(=O)C2CCCCC2)cc1[N+](=O)[O-]  7.26%
45. Cc1ccc(NC(=O)C2CCN(S(=O)(=O)c3ccc4c(c3)NC(=O)C(C)S4)CC2)c(C)c1 (centres unmarked)  7.09%
46. CCOc1ccc(S(=O)(=O)N(C)c2ccc(OCC(=O)Nc3nc4ccccc4s3)cc2)cc1  7.03%
47. COc1ccc(-c2n[nH]c(C)c2-c2cnn(-c3ccccc3)c2)c(O)c1C  6.58%
48. CC(C(=O)Nc1ccc(S(=O)(=O)Nc2ncccn2)cc1)N1C(=O)c2ccccc2S1(=O)=O (centres unmarked)  5.37%
49. O=C(c1ccc2c(c1)OCO2)C1CCCN(C(=O)C2CCOCC2)C1 (centres unmarked)  5.32%
50. CSc1ccccc1C(=O)C1CCCN(Cc2ccccn2)C1 (centres unmarked)  5.15%
51. CCCNC(=O)NC(=O)CSc1nc2cc(C(=O)OC)ccc2c(=O)n1-c1ccccc1  5.05%
52. CN(C)S(=O)(=O)c1ccc(C(=O)NCc2cccs2)cc1  4.65%
53. COC(=O)c1cc(NC(=O)C2CC2)cc(C(=O)OC)c1  4.46%
54. O=C(OC1CCOC1=O)c1cccc(S(=O)(=O)Nc2cccc(Cl)c2)c1 (centres unmarked)  4.36%
55. O=C(Cn1c(O)c(/C=C2\C=Nc3ccccc32)sc1=O)Nc1ccc2c(c1)OCO2  4%
56. O=C(CN1CCOCC1)Nc1cccc(S(=O)(=O)N2CCCCCC2)c1  3.83%
57. CCN(CC1COc2ccccc2O1)C(=S)NC1CC2CCC1C2 (centres unmarked)  3.81%
58. CC(=O)NCc1nnc2c3ccccc3c(-c3ccccc3)nn12  3.53%
59. O=C1CC(C(=O)O)c2ccccc2N1 (centres unmarked)  3.27%
60. CC(C)Cn1c(-c2ccco2)n[nH]c1=S  2.56%
61. C/C(=N\NC(=O)c1c(Cl)c(C)nn1C)c1cccc(NC(=O)C2CCCC2)c1  2.36%
62. Cc1c(CCOC(=O)C23CC4CC(CC(C4)C2)C3)sc[n+]1Cc1ccccc1.[Cl-]  2.1%
63. CC1(C)NC(=O)N(CC(O)CN(c2ccccc2)S(=O)(=O)c2ccccc2)C1=O (centres unmarked)  1.26%
64. Cc1ccc(NS(=O)(=O)c2cccc(C(=O)N3CCCC(C)C3)c2)cc1 (centres unmarked)  1.26%
65. COc1cccc(/C=N/c2sc(Cc3ccccc3)c(C)c2C(N)=O)c1O  1.25%
66. O=C(CN1CCN(c2ccccc2)CC1)NCc1ccc(F)cc1  1.22%
67. CCOc1ccc(NS(=O)(=O)c2cc(OCC(N)=O)c(C)cc2Cl)cc1  0.683%
68. COc1ccc(Cl)cc1NC(=O)CN(C)C(=O)c1ccc2n[nH]nc2c1  0.151%
69. Nc1ccc(C(=O)OCC(=O)NC2CCS(=O)(=O)C2)cc1[N+](=O)[O-] (centres unmarked)  -0.0043%
70. O=C(NCC1CCCO1)c1ccc(NC(=O)C2C3C=CC(C3)C2C(=O)O)cc1 (centres unmarked)  -0.304%
71. Clc1ccc(C2=NN=C3COc4ccccc4N3C2)cc1  -1.19%
72. COc1cc(/C=C/C(=O)OCC(=O)Nc2cc(S(=O)(=O)N(C)C)ccc2Cl)ccc1O  -1.61%
73. O=C(CSc1nnc(-c2ccccc2)o1)N1CCc2ccccc2C1  -2.23%
74. CCNc1nc(NC(C)C)nc(OCCOC(=O)c2ccccc2)n1  -2.62%
75. CCC(=NC1CC1)c1c(O)n(C2CCCCC2)c(=O)[nH]c1=O  -2.82%
76. O=C(CSc1nc2ccccc2[nH]1)N1CCN(S(=O)(=O)c2ccc(Cl)cc2)CC1  -3.35%
77. O=C(CN1C(=O)c2cccc3cccc(c23)C1=O)N1CCN(c2ccccn2)CC1  -3.98%
78. CC1=CC(=O)C2=C(C)CC(O)C3C(C)C(=O)OC3C12.O (centres unmarked)  -4.16%
79. CC(Sc1nc2ccccc2s1)C(=O)Nc1nnc(C(C)C)s1 (centres unmarked)  -4.35%
80. N#CCCn1c(-c2nonc2NC(=O)c2ccccc2Cl)nc2ccccc21  -5.19%
81. CCN(CC)S(=O)(=O)c1ccc(Oc2ccccc2)cc1  -5.84%
82. CC(C)(C)OC(=O)NCCC(=O)Oc1ccc2ccc(=O)oc2c1  -7.24%
83. CC(C)CN1CCN(Cc2cnc(-c3ccc(Cl)cc3)nc2)CC1CCO (centres unmarked)  -7.6%
84. CCOc1c(C)cnc2c1c(=O)n(Cc1cccc(Cl)c1)c(=O)n2C  -10.6%
85. COP(=O)(OC)C(Nc1ccc([N+](=O)[O-])cc1)c1ccccc1 (centres unmarked)  -11.9%
86. CC(C)[C@H]1CN=C2N(C[C@H](C)NC(=O)CCC3CCCCC3)[C@H](Cc3ccc(O)cc3)CN21  -13%
87. O=C(NC1CCCc2ccccc21)c1ccccc1Br (centres unmarked)  -13.5%
88. COc1cccc(-n2c(SCC#N)nnc2-c2cnccn2)c1  -19.4%
89. COc1cc2cc(C(c3nnnn3Cc3ccc(F)cc3)N3CCCCCC3)c(=O)[nH]c2cc1OC (centres unmarked)  -33.3%
